Laboratory results published in paper PMC4802085.
Results are given in words; binding and its absence hold for the method and conditions named. For some of these results: Binding seen in cells or lysates may run through a third protein. Some entries that bind do so weakly or less than the wild type. One block for each substance: values may come before it.

The chains behind the UniProt entries cited, without tags or fusion partners. Where a name states a change or a piece, a line headed by the entry shows the natural chain unless it says otherwise. A line that says so, or that is headed by a name, gives the form on record, which may keep a tag or linker. Residues count along the entry.
UniProt O00264: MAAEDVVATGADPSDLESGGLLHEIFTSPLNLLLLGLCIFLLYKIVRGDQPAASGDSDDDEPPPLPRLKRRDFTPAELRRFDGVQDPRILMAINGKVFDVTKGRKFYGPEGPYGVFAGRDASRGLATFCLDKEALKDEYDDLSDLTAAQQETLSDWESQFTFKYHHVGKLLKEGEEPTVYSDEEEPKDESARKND
FLAG-PGRMC1 wild-type (a.a.44–195): residues 44-195 of O00264
FLAG-PGRMC1 Y113F mutant (a.a.44–195) (O00264, form named): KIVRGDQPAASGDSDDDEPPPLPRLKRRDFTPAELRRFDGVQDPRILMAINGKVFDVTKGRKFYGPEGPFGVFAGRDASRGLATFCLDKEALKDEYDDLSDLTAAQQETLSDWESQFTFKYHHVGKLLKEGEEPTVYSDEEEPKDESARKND
PGRMC1 Y113F mutant (a.a.44–195) (O00264, form named): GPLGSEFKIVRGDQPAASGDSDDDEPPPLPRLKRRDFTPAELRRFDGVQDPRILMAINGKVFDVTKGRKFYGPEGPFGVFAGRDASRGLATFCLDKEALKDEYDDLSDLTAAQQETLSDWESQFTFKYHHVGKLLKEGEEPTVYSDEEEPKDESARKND

What was measured:
[1] = target: FLAG-PGRMC1 Y113F (full length) (human) (UniProt O00264); assay: co-IP; FLAG-PGRMC1 over-expressed in HCT116 cells, NP40 lysis buffer (20 mmol l^−1 Tris-HCl (pH 7.5), 150 mmol l^−1 NaCl, 1% NP40), anti-FLAG (M2) agarose, blots for PGRMC1 and EGFR; cells with or without 250 μmol l^−1 succinylacetone (SA) for 48 h
[2] = target: C129S mutant of PGRMC1 expressed in cells (human) (UniProt O00264); assay: as above
[3] = target: FLAG-PGRMC1 wild-type (full length) (human) (UniProt O00264); assay: as above
[4] = target: FLAG-PGRMC1 Y113F mutant (a.a.44–195) (human) (UniProt O00264); assay: co-IP; in vitro binding assay: 1 μg purified EGFR with 10 μg FLAG-PGRMC1 (a.a.44–195) treated with 50 μmol l^−1 haemin, anti-FLAG (M2) agarose; 20 mmol l^−1 HEPES-NaOH (pH 7.9), 100 mmol l^−1 NaCl, 0.2 mmol l^−1 EDTA, 10% glycerol, 0.1% NP40, room temperature; both purified
[5] = target: FLAG-PGRMC1 wild-type (a.a.44–195) (human) (UniProt O00264); assay: condition: only with 10 μmol l^−1 CORM3 (CO-releasing molecule); co-IP; in vitro binding assay as a14, haem-bound FLAG-PGRMC1, 5 mmol l^−1 sodium dithionite, with 10 μmol l^−1 CORM3 (CO-releasing molecule); both purified
[6] = target: FLAG-PGRMC1 wild-type (a.a.44–195) (human) (UniProt O00264); assay: co-IP; in vitro binding assay as a14 with FLAG-PGRMC1 in apo form (no haemin); both purified
[7] = target: PGRMC1 Y113F mutant (a.a.44–195) (human) (UniProt O00264); assay: SEC; with haem, ferric or ferrous (5 mmol l^−1 dithionite); Superdex 200, 20 mmol l^−1 Tris-HCl (pH 7.5), 100 mmol l^−1 NaCl, 10 μg protein; both purified

binding [1]: no binding | binding [2]: binds | binding [3]: binds
Substance: EGFR of HCT116 cells (from UniProt P00533 25-1210) (receptor)

binding [4]: no binding | binding [5]: no binding
Substance: purified EGFR (epidermal growth factor receptor) (from UniProt P00533 25-1210)
binding [6]: no binding (condition: without haem (apo form))

binding [7]: no binding
Substance: PGRMC1 Y113F mutant (a.a.44–195) (from UniProt O00264 44-195) (domain or fragment)
